Here are results for 40 molecules from the supplement of paper PMC8047034.

Structures can show the parent of a compound that is named as a salt. The list shows a part of the results. Single values are uncertain, as repeats are few or missing.

The first test has as its system Ov4Carbo. The test can be described thus: log2 surviving fraction (library drug vs vehicle, or drug + carboplatin vs carboplatin alone; relative to plate median); ovarian cancer lines: OVCAR4 is platinum-sensitive and Ov4Carbo platinum-resistant; higher = more cell survival. The following applies: library drug concentration 10 µM; 7 days; carboplatin co-treatment 0 µM.
Turning to `CN(C)CCN(Cc1ccccc1)c1ccccn1` [Tripelennamine HCl], the log2 surviving fraction turned out to be 0.243.
Still for that read-out and setting: with `COC1=C(OC)C(=O)C(CCCCCCCCCCO)=C(C)C1=O` [Idebenone] the figure was -0.412; with `CC(=O)[C@H]1CC[C@H]2[C@@H]3CC=C4C[C@@H](O)CC[C@]4(C)[C@H]3CC[C@]12C` [Pregnenolone], 1.01; with `O=C1[C@H](CC[C@H](O)c2ccc(F)cc2)[C@@H](c2ccc(O)cc2)N1c1ccc(F)cc1` [Ezetimibe (Zetia)], 0.305.
Same read-out and setting: with `C[C@@H]1CC(=O)NN=C1c1ccc(NN=C(C#N)C#N)cc1` [Levosimendan] the figure was -0.369; with `CN1CCN(c2c(F)cc3c(=O)c(C(=O)O)cn4c3c2OCN4C)CC1` [Marbofloxacin], 0.875.
On the same count and under the same terms, with `CN1CCN(CCCN2c3ccccc3Sc3ccc(Cl)cc32)CC1` [Prochlorperazine Dimaleate] the figure was -3.66; with `Cc1cc2c(s1)Nc1ccccc1N=C2N1CCN(C)CC1` [Olanzapine (Zyprexa)], 0.256; with `O=c1[nH]c2ccccc2n1CCCN1CCC(n2c(=O)[nH]c3cc(Cl)ccc32)CC1` [Domperidone (Motilium)], -1.61.
Take `Cc1c(Cl)cccc1Nc1ccccc1C(=O)O` [Tolfenamic acid]: the log2 surviving fraction worked out at 0.326.
The same measure, in the same setting: with `[I-].[K+]` [Potassium iodide] the figure was 0.324; with `C[C@H](N)[C@H](O)c1cccc(O)c1` [Metaraminol Bitartrate], 0.489; with `CCC[C@H](NC(=O)[C@@H]1[C@H]2CCC[C@H]2CN1C(=O)[C@@H](NC(=O)[C@@H](NC(=O)c1cnccn1)C1CCCCC1)C(C)(C)C)C(=O)C(=O)NC1CC1` [Telaprevir (VX-950)], -0.943.
On the same count and under the same terms, with `Nc1nc2c(ncn2COCCO)c(=O)[nH]1` [Acyclovir (Aciclovir)] the figure was 0.11; with `COc1ccccc1OCCNCC(O)COc1cccc2[nH]c3ccccc3c12` (stereo not given) [Carvedilol], -1.28.
On the same count and under the same terms, under `CCCCC(=O)O[C@]1(C(=O)CO)[C@@H](C)C[C@H]2[C@@H]3CCC4=CC(=O)C=C[C@]4(C)[C@@]3(F)[C@@H](O)C[C@@]21C` [Betamethasone valerate (Betnovate)] stands 1.34; under `NC(=O)c1cnccn1` [Pyrazinamide (Pyrazinoic acid amide)], -0.112.
As for `C[N+]1(C)CCC(=C(c2ccccc2)c2ccccc2)CC1` [Diphemanil methylsulfate], the log2 surviving fraction was -0.316.
Still for that read-out and setting: under `CNC(=O)Oc1ccc2c(c1)[C@]1(C)CCN(C)[C@@H]1N2C` [Physostigmine Hemisulfate Salt] stands 0.225; under `COc1ccc2c(c1)c(CC(=O)O)c(C)n2C(=O)c1ccc(Cl)cc1` [Indomethacin (Indocid, Indocin)], 1.37; under `Cc1c(C(=O)NN2CCCCC2)nn(-c2ccc(Cl)cc2Cl)c1-c1ccc(Cl)cc1`, -2.85.
On the same count and under the same terms, with `CN(C)CCCN1c2ccccc2CCc2ccccc21` [Imipramine HCl] the figure was -2; with `NC[C@H]1CC[C@H](C(=O)O)CC1` [Tranexamic acid (Transamin)], 0.477; with `CN1CC(=O)NC1=N` [Creatinine], 1.1.
The same measure, in the same setting: under `Nc1[nH]cnc2ncnc1-2` [Adenine] stands 0.622.
`CC(=O)CCCCn1c(=O)c2c(ncn2C)n(C)c1=O` [Pentoxifylline]: the log2 surviving fraction is -0.281.
On to `CCN1CCN(c2cc3c(cc2F)c(=O)c(C(=O)O)cn3C2CC2)CC1` [Enrofloxacin], for which the log2 surviving fraction came out at 1.38.
Still for that read-out and setting: under `CN1CCc2cc3c(cc2C1O)OCO3` (stereo not given) [Hydrastinine HCl] stands 0.487; under `Cc1cn([C@@H]2C[C@@H](O)[C@H](CO)O2)c(=O)[nH]c1=O` [Telbivudine (Sebivo, Tyzeka)], 0.11.
On the same count and under the same terms, under `O=C1Cc2cc(CCN3CCN(c4nsc5ccccc45)CC3)c(Cl)cc2N1` [Ziprasidone hydrochloride] stands -0.27.

The test is the same for the next values; noted with them: library drug concentration 10 µM; 7 days; carboplatin co-treatment 5 µM.
As to `N=C(N)N` [Guanidine HCl], the log2 surviving fraction is -1.41.
`C[C@@H]1O[C@@H]1P(=O)(O)O` [Fosfomycin Tromethamine]: the log2 surviving fraction was -0.726.
Still for that read-out and setting: with `CC[C@H]1OC(=O)[C@H](C)[C@@H](O[C@H]2C[C@@](C)(OC)[C@@H](O)[C@H](C)O2)[C@H](C)[C@@H](O[C@@H]2O[C@H](C)C[C@H](N(C)C)[C@H]2O)[C@](C)(O)C[C@@H](C)[C@@H]2N[C@@H](COCCOC)O[C@H]([C@H]2C)[C@]1(C)O` [Dirithromycin] the figure was -0.0274; with `OC[C@@H](O)[C@@H](O)[C@H](O)[C@H](O)CO` [D-Mannitol (Osmitrol)], 0.103; with `CCCCNC(=O)NS(=O)(=O)c1ccc(C)cc1` [Tolbutamide], 1.48.
The same measure, in the same setting: under `CC(C)[N+]1(C)[C@@H]2CC[C@H]1C[C@@H](OC(=O)C(CO)c1ccccc1)C2` (stereo not given in full) [Ipratropium bromide] stands -0.269.
The same measure, in the same setting: under `CN1C2CCC1CC(OC(=O)C(O)c1ccccc1)C2` (stereo not given) [Homatropine Bromide] stands 1.07; under `Cc1cc(C(C#N)c2ccc(Cl)cc2)c(Cl)cc1NC(=O)c1cc(I)cc(I)c1O` (stereo not given) [Closantel Sodium], 0.00315; under `C=C[C@]1(C)C[C@@H](OC(=O)CS[C@@H]2C[C@H]3CC[C@@H](C2)N3C)[C@]2(C)[C@H](C)CC[C@]3(CCC(=O)[C@H]32)[C@@H](C)[C@@H]1O` [Retapamulin], -2.12.
On to `CC(=O)O[C@@]12CO[C@@H]1C[C@@H](O)[C@@]1(C)C(=O)[C@H](O)C3=C(C)[C@@H](O)C[C@@](O)([C@@H](OC(=O)c4ccccc4)[C@H]21)C3(C)C` [10-DAB (10-Deacetylbaccatin)], for which the log2 surviving fraction was -3.75.
On to `CN(C)CCN(Cc1ccccc1)c1ccccn1` [Tripelennamine HCl], for which the log2 surviving fraction came to 0.994.
The same measure, in the same setting: under `COC1=C(OC)C(=O)C(CCCCCCCCCCO)=C(C)C1=O` [Idebenone] stands -0.417.
The same measure, in the same setting: under `CC(=O)[C@H]1CC[C@H]2[C@@H]3CC=C4C[C@@H](O)CC[C@]4(C)[C@H]3CC[C@]12C` [Pregnenolone] stands 0.537; under `O=C1[C@H](CC[C@H](O)c2ccc(F)cc2)[C@@H](c2ccc(O)cc2)N1c1ccc(F)cc1` [Ezetimibe (Zetia)], -0.211; under `C[C@@H]1CC(=O)NN=C1c1ccc(NN=C(C#N)C#N)cc1` [Levosimendan], 0.239.
Turning to `CN1CCN(c2c(F)cc3c(=O)c(C(=O)O)cn4c3c2OCN4C)CC1` [Marbofloxacin], the log2 surviving fraction stood at 0.593.
Still for that read-out and setting: under `CN1CCN(CCCN2c3ccccc3Sc3ccc(Cl)cc32)CC1` [Prochlorperazine Dimaleate] stands -2.99; under `Cc1cc2c(s1)Nc1ccccc1N=C2N1CCN(C)CC1` [Olanzapine (Zyprexa)], -0.136.
Still for that read-out and setting: under `O=c1[nH]c2ccccc2n1CCCN1CCC(n2c(=O)[nH]c3cc(Cl)ccc32)CC1` [Domperidone (Motilium)] stands 0.714; under `Cc1c(Cl)cccc1Nc1ccccc1C(=O)O` [Tolfenamic acid], -0.734; under `[I-].[K+]` [Potassium iodide], 0.116.
Same read-out and setting: with `C[C@H](N)[C@H](O)c1cccc(O)c1` [Metaraminol Bitartrate] the figure was -0.473; with `CCC[C@H](NC(=O)[C@@H]1[C@H]2CCC[C@H]2CN1C(=O)[C@@H](NC(=O)[C@@H](NC(=O)c1cnccn1)C1CCCCC1)C(C)(C)C)C(=O)C(=O)NC1CC1` [Telaprevir (VX-950)], -1.48.
As to `Nc1nc2c(ncn2COCCO)c(=O)[nH]1` [Acyclovir (Aciclovir)], the log2 surviving fraction was found to be 0.762.
Same read-out and setting: with `COc1ccccc1OCCNCC(O)COc1cccc2[nH]c3ccccc3c12` (stereo not given) [Carvedilol] the figure was -1.06; with `CCCCC(=O)O[C@]1(C(=O)CO)[C@@H](C)C[C@H]2[C@@H]3CCC4=CC(=O)C=C[C@]4(C)[C@@]3(F)[C@@H](O)C[C@@]21C` [Betamethasone valerate (Betnovate)], 0.934.
Turning to `NC(=O)c1cnccn1` [Pyrazinamide (Pyrazinoic acid amide)], the log2 surviving fraction was -0.0636.
The same measure, in the same setting: under `C[N+]1(C)CCC(=C(c2ccccc2)c2ccccc2)CC1` [Diphemanil methylsulfate] stands 0.384; under `CNC(=O)Oc1ccc2c(c1)[C@]1(C)CCN(C)[C@@H]1N2C` [Physostigmine Hemisulfate Salt], -0.033.
Same read-out and setting: with `COc1ccc2c(c1)c(CC(=O)O)c(C)n2C(=O)c1ccc(Cl)cc1` [Indomethacin (Indocid, Indocin)] the figure was 1.22; with `Cc1c(C(=O)NN2CCCCC2)nn(-c2ccc(Cl)cc2Cl)c1-c1ccc(Cl)cc1`, -1.75; with `CN(C)CCCN1c2ccccc2CCc2ccccc21` [Imipramine HCl], -0.848.
Still for that read-out and setting: under `NC[C@H]1CC[C@H](C(=O)O)CC1` [Tranexamic acid (Transamin)] stands 0.352; under `CN1CC(=O)NC1=N` [Creatinine], 1.86; under `Nc1[nH]cnc2ncnc1-2` [Adenine], -1.35.
Turning to `CC(=O)CCCCn1c(=O)c2c(ncn2C)n(C)c1=O` [Pentoxifylline], the log2 surviving fraction was -0.0585.
Same read-out and setting: under `CCN1CCN(c2cc3c(cc2F)c(=O)c(C(=O)O)cn3C2CC2)CC1` [Enrofloxacin] stands 0.481; under `CN1CCc2cc3c(cc2C1O)OCO3` (stereo not given) [Hydrastinine HCl], -0.164.
Turning to `Cc1cn([C@@H]2C[C@@H](O)[C@H](CO)O2)c(=O)[nH]c1=O` [Telbivudine (Sebivo, Tyzeka)], the log2 surviving fraction is 0.171.
The same measure, in the same setting: under `O=C1Cc2cc(CCN3CCN(c4nsc5ccccc45)CC3)c(Cl)cc2N1` [Ziprasidone hydrochloride] stands 0.436.
